Assay results published in WO2009055074A2 (dated 2009).

Molecular target: T1, HER2 (ErbB2) on the surface of human tumour cell lines (human, UniProt P04626)
T1 construct: Endogenous HER2 of the cell lines; also called cell surface Her2
Assay: cell staining at 200 nM, cells dissociated with trypsin or CellStripper

binding result: binds
B1: HER085 (Fc fusion)
chain: [sequence of about 100 residues omitted]GGSGSDYWGQGTMVTVSSGGGGSGGGGSGGGGSALNFMLTQPHSVSGSPGKTVTISCTRSSGYIDSKYVQWYQQRPGSAPTTVIYEDNRRPSGVPDRFSGSIDSSSNSASLTISGLETEDEADYYCQSYDDTNVVFGGGTKVTVLGDVR[sequence of human IgG1 Fc with changes omitted]
notes: SMIP; also called HER085 SMIP
